# Test results taken from the supplement of paper PMC3334620.
# Whole data set: some 33,000 sequences, median “E-score (-0.5 to 0.5)” near -0.012, cut for the highest 2% near 0.29. The list shows a part of the results.
# Target: T1, Ybr033w (UniProt P38073)
# T1 sequence: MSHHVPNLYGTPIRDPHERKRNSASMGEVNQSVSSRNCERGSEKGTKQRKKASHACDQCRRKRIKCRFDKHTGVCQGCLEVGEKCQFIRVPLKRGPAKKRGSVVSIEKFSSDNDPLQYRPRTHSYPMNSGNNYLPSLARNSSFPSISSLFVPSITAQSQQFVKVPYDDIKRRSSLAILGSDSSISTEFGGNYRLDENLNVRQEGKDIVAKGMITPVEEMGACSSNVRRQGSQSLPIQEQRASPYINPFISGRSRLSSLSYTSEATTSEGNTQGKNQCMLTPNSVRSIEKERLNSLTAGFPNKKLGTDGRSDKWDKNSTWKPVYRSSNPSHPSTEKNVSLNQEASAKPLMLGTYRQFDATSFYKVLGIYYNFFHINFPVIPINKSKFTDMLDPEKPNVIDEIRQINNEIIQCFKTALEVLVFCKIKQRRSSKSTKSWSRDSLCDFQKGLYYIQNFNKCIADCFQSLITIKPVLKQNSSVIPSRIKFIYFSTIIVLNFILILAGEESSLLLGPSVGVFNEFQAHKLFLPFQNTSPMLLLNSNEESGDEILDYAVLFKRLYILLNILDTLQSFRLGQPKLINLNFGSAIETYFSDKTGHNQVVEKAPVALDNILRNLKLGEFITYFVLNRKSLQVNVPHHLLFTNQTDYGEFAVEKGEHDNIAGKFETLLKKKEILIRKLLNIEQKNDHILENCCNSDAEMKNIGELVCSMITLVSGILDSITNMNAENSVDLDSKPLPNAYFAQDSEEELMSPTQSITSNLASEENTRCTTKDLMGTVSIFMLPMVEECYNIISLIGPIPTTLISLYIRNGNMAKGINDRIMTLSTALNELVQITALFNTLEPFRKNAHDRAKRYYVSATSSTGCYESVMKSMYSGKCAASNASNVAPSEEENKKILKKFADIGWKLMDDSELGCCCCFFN
# Assay: PBM E-score (8-mer binding enrichment) (E-score (-0.5 to 0.5)); higher = stronger / more preferred TF binding; most listed sequences are background and not binding sites
# Conditions: protein concentration: 200 nM; construct: GST-full length
# How it was run: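 For each ungapped eight-base word taken together with its reverse complement, the Universal PBM Analysis Suite assigned an E-score. Binding data came from GST-tagged yeast transcription factors, applied at about 100-200 nM, on universal all-10-mer Agilent arrays made double-stranded by primer extension. Fluorescent anti-GST marked bound protein, and scans were normalised with masliner.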
row,Sequence,PBM E-score
1,ACGACACC,-0.132
2,CATCTCAG,0.0606
3,CATGCAAA,0.0676
4,CAGCTGCG,-0.185
5,GTACTTCA,0.243
6,CTATCGAA,0.0256
7,AACCACCG,0.0341
8,ACGCGGAA,0.00139
9,ACCGTAGA,-0.0183
10,CGTACACG,-0.0201
11,AAGGGCGG,-0.293
12,GACATTTA,-0.045
13,CATCATCA,0.136
14,AGCACTCA,-0.00943
15,GGCCAAAA,0.0124
16,AGATGCGG,0.0027
17,CCAACCTA,0.0408
18,CACCATAG,-0.123
19,CATAACAC,0.151
20,ACACAAGC,0.0994
21,TGACTTAA,0.133
22,AAATTCAA,0.288
23,ACACTACT,0.0995
24,CGAATCCC,-0.00902
25,CATCCTAA,0.179
26,GAGAATAC,0.0849

row,Sequence,PBM E-score
1,CATGACAA,-0.0371
2,CCTCTAGC,-0.24
3,ACGCCATA,-0.00434
4,CAGCCAGG,-0.0718
5,AAGCCGCG,-0.00375
6,CCCCGTCC,-0.418
7,CCGCATGA,-0.0371
8,ACTGCCAG,-0.0594
9,GGTCTTAA,-0.199
10,AACACGTG,-0.0196
11,ATACCCAT,0.0822
12,CTTTGTAC,0.0819
13,TCTTGAAA,0.319
14,CTAGGCCA,-0.0702
15,ACATTTGC,0.062
16,ACAGAATG,0.0705
17,AAAACGCA,0.0177
18,GGCCGCTA,-0.193
19,ACAACCCG,-0.0289
20,AATGGACC,-0.0552
21,ATAGTATC,0.234
22,ACCTGATG,-0.216
23,AGCAAGTA,0.119
24,AGGGTTAA,0.0574
25,CTGCTATC,0.147
26,GGTCTTGA,-0.163

row,Sequence,PBM E-score
1,CTGAGGAA,-0.117
2,AATTCGGG,0.0656
3,AAAGCCAG,-0.0142
4,CCTAGTTA,0.0775
5,CATCGTAG,-0.0533
6,CCCACTCA,-0.155
7,GGACCAAA,-0.0745
8,GGCCATAC,-8e-05
9,ACGAGTCC,-0.14
10,ACGCTTAC,-0.0894
11,ATTGTAGC,0.0825
12,CATATCAC,0.116
13,ATCTATCC,0.0719
14,AGGTATCA,-0.073
15,ACGTTACG,0.0785
16,TATCCCAA,0.0156
17,AGACTTAG,-0.058
18,GTAACCCA,0.25
19,ACGACACG,0.0867
20,AGGAACAA,0.402
21,ACTAAGAA,0.124
22,AGTTCGGC,-0.0769
23,TATGAGGA,0.0336
24,TACATTGA,0.148
25,CAAGCCTA,0.113
26,CTTTGGAC,0.0547

row,Sequence,PBM E-score
1,ATTCTCGG,0.137
2,ACCAACGA,0.0596
3,GTCACCAC,0.00872
4,GCACAAGA,-0.0382
5,TCCCGAGA,0.0347
6,CAAGGTCC,-0.134
7,AGCTTTCG,-0.123
8,GCGGGCTA,-0.197
9,ACGAGCAT,0.0245
10,CCGTACTA,0.139
11,GATTACTA,0.193
12,AAACCCCG,0.0476
13,CACTAGCG,-0.174
14,CCAGGGTA,-0.211
15,AAACTCCG,0.17
16,GTATATAC,0.0464
17,ACCTTTAA,0.126
18,TCGACGCA,-0.0992
19,CTGTCATC,-0.0865
20,CATTAAGC,-0.00944
21,CTCGTCCA,0.00704
22,AAGATCGA,0.126
23,GTCATGAA,0.0158
24,AATGTGAT,0.15
25,ACGGTCGC,-0.226
26,AGCGCACC,0.0899

row,Sequence,PBM E-score
1,GTCGACCA,0.0611
2,GATTCACC,-0.0324
3,AGGCTACT,-0.0319
4,AGGGTGTA,-0.0318
5,AAATGAGG,-0.073
6,GCCTCGCC,-0.266
7,ATGTCGAC,0.225
8,AATAGCGC,0.0574
9,CTGGCCCC,-0.151
10,CTACTGGC,-0.052
11,GGTCCACA,-0.265
12,AACACTCG,-0.00476
13,AAAGGACC,-0.213
14,CTCTGAGC,-0.322
15,ATGACCAA,0.0642
16,CTCCAGCA,-0.198
17,CCGAACAC,-0.0155
18,ATTGCTAC,0.0217
19,AAGAGAAT,0.0326
20,TCGTAAGA,-0.0332
21,GTGTAACA,-0.015
22,CGGGAACC,-0.304
23,AAGTGTTC,0.103
24,AAGTATGA,0.0483
